Among the test systems are WM115; WM1716; WM1745; WM3526; WM3619; WM451Lu.
Holding throughout (experiment): cell count relative to DMSO control; melanoma cells; higher = more viable cells
Common to all, as to conditions: library dose: low library concentration; 72 h

For 21 compounds, cell count results are on record in the supplement of paper PMC4604168 (melanoma cell lines).

Some of the results follow. Single values are uncertain, as repeats are few or missing.
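Also: cell number obtained by counting DAPI-stained nuclei in high-throughput microscope images with image analysis software, screen run in 1,536-well plates.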

Regarding `C[C@@H](Oc1cc(-c2cnn(C3CCNCC3)c2)cnc1N)c1c(Cl)ccc(F)c1Cl` [Crizotinib] + COc1ccc(Cl)c(Nc2nc3ccccc3nc2NS(=O)(=O)c2cccc(NC(=O)C(C)(C)N)c2)c1 [XL147] (first compound 0.2 µM, partner dose 0.8 µM), the cell count in the experiment with WM115 worked out at 110%; in the experiment on WM1716, 109%; in the experiment on WM1745, 98.8%; in the experiment with WM3526 it was 81.4%; in the experiment with WM3619 it was 111%; with WM451Lu it was 94.6%.

For the compound `CN1CCN(c2ccc3nc(-c4c(N)c5c(F)cccc5[nH]c4=O)[nH]c3c2)CC1` [Dovitinib] + CC(=O)c1c(C)c2cnc(Nc3ccc(N4CCNCC4)cn3)nc2n(C2CCCC2)c1=O [palbociclib] (first compound 0.1 µM, partner dose 0.04 µM), the cell count with WM115 was found to be 90.1%; with WM1716, 80.5%; in the experiment on WM1745, 68.2%; with WM3526, 62.4%; in the experiment on WM3619 it was 70.4%; with WM451Lu, 85.5%.

Consider `C[C@@H](Oc1cc(-c2cnn(C3CCNCC3)c2)cnc1N)c1c(Cl)ccc(F)c1Cl` [Crizotinib] + Cn1nnc2c(C(N)=O)ncn2c1=O [temozolomide] (first compound 0.2 µM, partner dose 2 µM), for which the cell count in the experiment with WM115 amounted to 92.3%; in the experiment on WM1716, 96.2%; in the experiment with WM1745 it was 89.5%; in the experiment with WM3526, 117%; in the experiment with WM3619, 112%; in the experiment on WM451Lu, 117%.

Regarding `CN1CCN(c2ccc3nc(-c4c(N)c5c(F)cccc5[nH]c4=O)[nH]c3c2)CC1` [Dovitinib] + c1cc(-c2cnn3cc(-c4ccc(OCCN5CCCCC5)cc4)cnc23)ccn1 [Dorsomorphin] (first compound 0.1 µM, partner dose 0.4 µM), the cell count in the experiment on WM115 came out at 89%; in the experiment on WM1716, 113%; with WM1745 it was 84.9%; in the experiment with WM3526, 41%; with WM3619, 112%; with WM451Lu, 110%.

Take `CN1CCN(c2ccc3nc(-c4c(N)c5c(F)cccc5[nH]c4=O)[nH]c3c2)CC1` [Dovitinib] + CO[C@H]1C[C@@H]2CC[C@@H](C)[C@@](O)(O2)C(=O)C(=O)N2CCCC[C@H]2C(=O)O[C@H]([C@H](C)C[C@@H]2CC[C@@H](OCCO)[C@H](OC)C2)CC(=O)[C@H](C)/C=C(\C)[C@@H](O)[C@@H](OC)C(=O)[C@H](C)C[C@H](C)/C=C/C=C/C=C/1C [everolimus] (first compound 0.1 µM, partner dose 0.02 µM): the cell count in the experiment on WM115 stood at 65.2%; with WM1716 it was 78.8%; in the experiment on WM1745, 74.8%; in the experiment on WM3526 it was 59.8%; in the experiment on WM3619 it was 80%; with WM451Lu it was 68.2%.

For `CN1CCN(c2ccc3nc(-c4c(N)c5c(F)cccc5[nH]c4=O)[nH]c3c2)CC1` [Dovitinib] + O=C(O)c1ccc(-c2c[nH]c3ncc(-c4ccccc4)cc23)cc1C1CCCC1 [GSK650394] (first compound 0.1 µM, partner dose 0.16 µM), the cell count in the experiment with WM115 worked out at 102%; with WM1716, 91.3%; with WM1745, 70.8%; in the experiment with WM3526, 77.9%; in the experiment with WM3619 it was 98.7%; with WM451Lu, 113%.

Regarding `CN1CCN(c2ccc3nc(-c4c(N)c5c(F)cccc5[nH]c4=O)[nH]c3c2)CC1` [Dovitinib] + OCc1c[nH]c2ccccc12 [Indole-3-carbinol] (first compound 0.1 µM, partner dose 0.8 µM), the cell count in the experiment on WM115 was 79.8%; in the experiment with WM1716, 92.7%; in the experiment on WM1745, 83.5%; in the experiment on WM3526 it was 77.8%; with WM3619, 113%; in the experiment with WM451Lu, 95%.

Consider `C[C@@H](Oc1cc(-c2cnn(C3CCNCC3)c2)cnc1N)c1c(Cl)ccc(F)c1Cl` [Crizotinib] + C=CCn1c(=O)c2cnc(Nc3ccc(N4CCN(C)CC4)cc3)nc2n1-c1cccc(C(C)(C)O)n1 [MK1775] (first compound 0.2 µM, partner dose 0.02 µM), for which the cell count with WM115 amounted to 70.4%; in the experiment with WM1716, 88.7%; in the experiment with WM1745, 85.4%; in the experiment on WM3526 it was 87.4%; with WM3619, 69.3%; in the experiment with WM451Lu, 121%.

On to `CNC(=O)c1cc(Oc2ccc(NC(=O)Nc3ccc(Cl)c(C(F)(F)F)c3)cc2)ccn1` [sorafenib] + CC(C)(C)c1cnc(CSc2cnc(NC(=O)C3CCNCC3)s2)o1 [SNS-032] (first compound 0.4 µM, partner dose 0.01 µM), for which the cell count with WM115 amounted to 100%; in the experiment with WM1716, 104%; with WM1745, 90.4%; with WM3526, 94.4%; with WM3619, 82.5%; with WM451Lu it was 97.4%.

Regarding `C[C@@H](Oc1cc(-c2cnn(C3CCNCC3)c2)cnc1N)c1c(Cl)ccc(F)c1Cl` [Crizotinib] + C#Cc1cccc(Nc2ncnc3cc(OCCOC)c(OCCOC)cc23)c1 [erlotinib] (first compound 0.2 µM, partner dose 0.8 µM), the cell count was 81.1% in the experiment with WM115; 92.9% with WM1716; 78.5% in the experiment on WM1745; 86.5% in the experiment on WM3526; 99.6% with WM3619; 92.4% with WM451Lu.

On to `CNC(=O)c1cc(Oc2ccc(NC(=O)Nc3ccc(Cl)c(C(F)(F)F)c3)cc2)ccn1` [sorafenib] + Cc1nc(Nc2ncc(C(=O)Nc3c(C)cccc3Cl)s2)cc(N2CCN(CCO)CC2)n1 [dasatanib] (first compound 0.4 µM, partner dose 0.004 µM), for which the cell count turned out to be 83.8% with WM115; 74.9% in the experiment with WM1716; 70.1% in the experiment on WM1745; 101% in the experiment on WM3526; 91.4% with WM3619; 80.6% with WM451Lu.

On to `CS(=O)(=O)CCNCc1ccc(-c2ccc3ncnc(Nc4ccc(OCc5cccc(F)c5)c(Cl)c4)c3c2)o1` [lapatinib] + C[C@@H]1CCN(C(=O)CC#N)C[C@@H]1N(C)c1ncnc2[nH]ccc12 [CP690550] (first compound 0.8 µM, partner dose 1 µM), for which the cell count with WM115 turned out to be 99.5%; in the experiment with WM1716, 102%; in the experiment on WM1745 it was 102%; in the experiment with WM3526, 93.9%; in the experiment on WM3619, 101%; in the experiment with WM451Lu it was 106%.

Take `C[C@@H](Oc1cc(-c2cnn(C3CCNCC3)c2)cnc1N)c1c(Cl)ccc(F)c1Cl` [Crizotinib] + COc1ccc2c(c1)CCC1C2CCC2(C)C(NCCCCCCN3C(=O)C=CC3=O)CCC12 [U73122] (first compound 0.2 µM, partner dose 0.4 µM): the cell count was 95.2% with WM115; 90% with WM1716; 95.5% with WM1745; 100% with WM3526; 89.8% in the experiment with WM3619; 96.1% with WM451Lu.

Take `CN1CCN(c2ccc3nc(-c4c(N)c5c(F)cccc5[nH]c4=O)[nH]c3c2)CC1` [Dovitinib] + CNC(=O)c1cc(Oc2ccc(NC(=O)Nc3ccc(Cl)c(C(F)(F)F)c3)cc2)ccn1 [sorafenib] (first compound 0.1 µM, partner dose 0.4 µM): the cell count in the experiment on WM115 came to 95%; with WM1716 it was 92.6%; with WM1745 it was 74.9%; with WM3526, 86.8%; with WM3619, 102%; in the experiment on WM451Lu, 97.8%.

For `CN1CCN(c2ccc3nc(-c4c(N)c5c(F)cccc5[nH]c4=O)[nH]c3c2)CC1` [Dovitinib] + Oc1nc(-c2ccc(C(F)(F)F)cc2)nc2c1CSCC2 [XAV939] (first compound 0.1 µM, partner dose 2 µM), the cell count was determined as 89.9% in the experiment with WM115; 66.8% with WM1716; 75.3% with WM1745; 97.5% in the experiment on WM3526; 100% in the experiment with WM3619; 127% with WM451Lu.

Consider `C=CCNC1=C2C[C@@H](C)C[C@H](OC)[C@H](O)[C@@H](C)/C=C(\C)[C@H](OC(N)=O)[C@@H](OC)/C=C\C=C(/C)C(=O)NC(=CC1=O)C2=O` [Tanespimycin] + O=c1cc(-c2cccc3c2Sc2ccccc2S3)oc(N2CCOCC2)c1 [KU55933] (first compound 0.002 µM, partner dose 1 µM), for which the cell count is 86.7% in the experiment with WM115; 116% in the experiment on WM1716; 70% in the experiment with WM1745; 75.5% in the experiment on WM3526; 56.5% with WM3619; 90.3% with WM451Lu.

Consider `C=CCNC1=C2C[C@@H](C)C[C@H](OC)[C@H](O)[C@@H](C)/C=C(\C)[C@H](OC(N)=O)[C@@H](OC)/C=C\C=C(/C)C(=O)NC(=CC1=O)C2=O` [Tanespimycin] + O=C(Nc1cccc(Cl)c1)Nc1ncc(CCNc2ncnc3ccsc23)s1 [SNS314] (first compound 0.002 µM, partner dose 0.0008 µM), for which the cell count with WM115 was 64.5%; with WM1716, 102%; in the experiment with WM1745 it was 92.3%; with WM3526, 91.8%; in the experiment with WM3619 it was 91.6%; with WM451Lu, 87%.

As for `C=CCNC1=C2C[C@@H](C)C[C@H](OC)[C@H](O)[C@@H](C)/C=C(\C)[C@H](OC(N)=O)[C@@H](OC)/C=C\C=C(/C)C(=O)NC(=CC1=O)C2=O` [Tanespimycin] + c1cc(-c2cnn3cc(-c4ccc(OCCN5CCCCC5)cc4)cnc23)ccn1 [Dorsomorphin] (first compound 0.002 µM, partner dose 0.4 µM), the cell count in the experiment with WM115 stood at 88.2%; in the experiment on WM1716, 96.2%; with WM1745 it was 95.2%; in the experiment on WM3526, 103%; with WM3619 it was 85.6%; with WM451Lu, 93.2%.

For the compound `C=CCNC1=C2C[C@@H](C)C[C@H](OC)[C@H](O)[C@@H](C)/C=C(\C)[C@H](OC(N)=O)[C@@H](OC)/C=C\C=C(/C)C(=O)NC(=CC1=O)C2=O` [Tanespimycin] + C#Cc1cccc(Nc2ncnc3cc(OCCOC)c(OCCOC)cc23)c1 [erlotinib] (first compound 0.002 µM, partner dose 0.8 µM), the cell count was found to be 84.7% in the experiment with WM115; 104% in the experiment with WM1716; 48.7% in the experiment with WM1745; 99.7% with WM3526; 57.9% with WM3619; 92.3% with WM451Lu.

For the compound `CS(=O)(=O)CCNCc1ccc(-c2ccc3ncnc(Nc4ccc(OCc5cccc(F)c5)c(Cl)c4)c3c2)o1` [lapatinib] + C#Cc1cccc(Nc2ncnc3cc(OCCOC)c(OCCOC)cc23)c1 [erlotinib] (first compound 0.8 µM, partner dose 0.8 µM), the cell count with WM115 was found to be 107%; in the experiment on WM1716, 99.6%; with WM1745, 99.2%; in the experiment on WM3526 it was 98.6%; in the experiment on WM3619 it was 92.2%; in the experiment on WM451Lu, 108%.

In the case of `CNC(=O)c1cc(Oc2ccc(NC(=O)Nc3ccc(Cl)c(C(F)(F)F)c3)cc2)ccn1` [sorafenib] + C[C@@H]1CCN(C(=O)CC#N)C[C@@H]1N(C)c1ncnc2[nH]ccc12 [CP690550] (first compound 0.4 µM, partner dose 1 µM), the cell count is 116% with WM115; 91% with WM1716; 93.8% in the experiment with WM1745; 123% in the experiment on WM3526; 101% with WM3619; 86.3% in the experiment on WM451Lu.
